Measurements reported in PubChem BioAssay AID686979 (National Center for Advancing Translational Sciences (NCATS), 2013).
Hit rate of the full screen: of about 420,000 compounds, about 50,000 (12%) were called active. The inconclusive results got no clear call from the source; some entries with a clear call stand among them for comparison. Calls come from the whole dose curve; as a rule, active = well fitted inhibition curve with a large enough effect; inconclusive = small, poorly fitted or top-dose-only effect; inactive = flat fitted curve, though single readings scatter. Potencies of inconclusive entries are left out as doubtful fits.

Assay: qHTS for Inhibitors of human tyrosyl-DNA phosphodiesterase 1 (TDP1): qHTS in cells in presence of CPT; note: nearly all actives have a fitted effect of over 55% in size
Conditions: chicken DT40 Tdp1-/-;hTDP1 cells + 20 nM CPT, ATP luminescence, 48 h; activity change, negative = growth inhibition: at 46.2 µM (top of the series)
Text: Human tyrosyl-DNA phosphodiesterase 1 (TDP1) is a novel repair gene, and we propose to use it as a new target for anticancer drug development. TDP1 is not an essential protein, but under treatment with topoisomerase I poison (camptothecin: CPT), TDP1 works as a critical factor for cell survival. To directly identify novel TDP1 inhibitors active in a cellular environment, we have knocked-out the Tdp1 gene in chicken DT40 cells (Tdp1-/-) and generated a complemented counterpart cells that contains a stable transfection of the human TDP1 gene (Tdp1-/-;hTDP1 cells). For the primary screen, Tdp1-/-;hTDP1 cells will be exposed to small molecules in the presence or absence of CPT, and their growth kinetics will be evaluated after 48 hours by measuring ATP activity. […] The hit compounds will then be evaluated in the presence or absence of CPT using Tdp1-/- cells. […] In tertiary assays, biochemical gel-based assays will be used to assess whether the hit compounds specifically target TDP1. To this end, we have screened this cell line against the MLSMR in two primary screens. In one screen we add CPT and in the other we screen in the absence of CPT; this AID represents the screen where CPT was present. NIH Chemical Genomics Center [NCGC] NIH Molecular Libraries Probe Centers Network [MLPCN] MLPCN Grant: MH095538 Assay Submitter (PI): Yves Pommier, NCI
DT40-hTDP1 cells with 20 nM Camptothecin (add 20 microL of 1 mM CPT stock in 1 L of cell culture medium) were dispensed at 400 cells/5microL/well in tissue culture treated 1536-well white wall/solid bottom assay plates (Greiner Bio-One North America, NC, U.S.A.) using a Multidrop Combi 8 channel dispenser (Thermo Fisher, Waltham, MA, USA). 23 nL compounds and controls were transferred using the pin tool (Kalypsys, San Diego, CA, USA) to the assay plates. The assay plates were then incubated at 37 masculineC for a minimum 48 hr. Three microL of Cell Titer Glo solution was added to the plates and incubated at RT in dark for 30 min. Luminescence was read using ViewLux (Perkin Elmer) with 1 sec exposure slow speed, high gain and 2x binning.
% is set by controls: 0 for no effect and ±100 for the full control effect; potency is the fitted concentration of half-maximal effect; tags give direction and shape of the fitted curve.

| SMILES | Potency | activity change, negative = growth inhibition |
| --- | --- | --- |
| CSc1nsc(SCC(=O)Nc2ccc(Br)cn2)n1 | inconclusive [inhibitor, single point] |  |
| COc1ccc(Cl)c(Cn2c(NCCN)nc3c2c(=O)n(C)c(=O)n3C)c1 | inconclusive [inhibitor, partial curve] |  |
| CCCCOc1ccc(N(CC(=O)NC2CCCC2)C(=O)CCC(=O)Nc2ccccn2)cc1 | inconclusive [inhibitor, single point] |  |
| COc1cccc(NC(=O)CN(C)C(=O)c2cc(-c3ccccc3)nn2-c2ccccc2)c1 |  | inactive: -1.34% |
| O=C(NNC(=O)c1ccccc1Cl)c1cc2cc(OC(F)(F)F)ccc2[nH]1 |  | inactive: -9% |
| CCCc1cc(=O)n2[nH]c(-c3cccc(Br)c3)cc2n1 | inconclusive [inhibitor, partial curve] |  |
| O=[N+]([O-])c1ccc(NN=Cc2ccc(O)cc2)nc1 |  | inactive: 5.45% |
| Cc1ccc(N2C(=O)C3C4C=CC(CNC(=S)Nc5cccc(Cl)c5)(O4)C3C2=O)cc1 (stereo not drawn) | inconclusive [inhibitor, single point] |  |
| CC(C)Cn1c(=O)c2ccccc2n2c(-c3cccc(Cl)c3)nnc12 | inconclusive [inhibitor, single point] |  |
| O=S(=O)(c1ccccc1)c1nc(Nc2ccccc2N2CCOCC2)sc1Cl | inconclusive [inhibitor, single point] |  |
| Cc1c2ccccc2nc2ccccc12 | inconclusive [inhibitor, partial curve] |  |
| NC(=S)n1[nH]c(-c2ccc([N+](=O)[O-])cc2)c(N=Nc2cccc(Cl)c2)c1=O | active: 8.2 µM |  |
| CCCCC(=O)Nc1cc(C)c2c(=O)oc3ccccc3c2n1 | inconclusive [inhibitor, single point] |  |
| O=C(C1CCN(S(=O)(=O)c2ccc(F)cc2)CC1)N1CC=C(c2ccccc2)CC1 | inconclusive [inhibitor, single point] |  |
| COc1ccc(C2=CC(=O)CC(c3ccc(F)cc3)C2)cn1 (stereo not drawn) | active: 14.6 µM |  |
| CN(CCC1CCOCC1)C(=O)CC1C(=O)NCCN1CC1CCCCC1 (stereo not drawn) |  | inactive: 8.83% |
| CCOc1ccc(NC(=O)N2CCOc3ccccc32)cc1 |  | inactive: -26.6% |
| CSc1ccc(S(=O)(=O)NC2CCCCCC2)cc1 | inconclusive [inhibitor, single point] |  |
| COc1ccc(NC(=O)c2cc(C(C)C)on2)cc1OC |  | inconclusive: -30.7% [inhibitor] |
| COC(=O)COc1cccc(NS(=O)(=O)c2cccc([N+](=O)[O-])c2)c1 |  | inactive: 1.5% |
| COc1ccc(OCC(=O)NCCCNC(=O)COc2ccc(OC)cc2)cc1 |  | inactive: -17.1% |
| COc1cccc(C2=CC(=O)C[C@H](c3ccc4c(c3)OCO4)C2)c1OC |  | inactive: 1.48% |
| CCCOc1ccccc1Cn1c(=O)sc2ccccc21 | inconclusive [inhibitor, single point] |  |
| COc1ccc(C(=O)CCc2ccc(OC)c(OC)c2)cc1 | inconclusive [inhibitor, single point] |  |

| SMILES | Potency | activity change, negative = growth inhibition |
| --- | --- | --- |
| CCc1ccc(NC(=O)Cn2c(=O)n(CCC(=O)NC3CCN(Cc4ccccc4)CC3)c(=O)c3ccccc32)cc1 | inconclusive [inhibitor, partial curve] |  |
| O=C(/C=C/c1cccc(C(F)(F)F)c1)N1CCN(c2ccccn2)CC1 | inconclusive [inhibitor, single point] |  |
| CCOC(=O)CN1CCc2c(C)nc3c(-c4ccc(OC)c(OC)c4)cnn3c21 | inconclusive [inhibitor, single point] |  |
| O=C1NC(c2ccccc2)Oc2ccccc21 (stereo not drawn) |  | inactive: -11.4% |
| CCOC(=O)C1CCCN(C(=O)c2cccc3ccccc23)C1 (stereo not drawn) |  | inactive: 9.55% |
| CCC(Sc1nc2ncnc(N)c2[nH]1)C(=O)O (stereo not drawn) |  | inactive: -3.62% |
| CCOC(=O)N1CCC(Nc2c(OCC)c(=O)c2=O)CC1 |  | inactive: 22.8% |
| CCN(CC)S(=O)(=O)c1ccc(NC(=O)CC(NC(C)=O)c2ccccc2)cc1 (stereo not drawn) |  | inactive: -26.1% |
| O=C(Nc1ccccc1C(=O)NC1CCCCC1)c1ccccc1 | inconclusive [inhibitor, single point] |  |
| COc1cccc(=O)c2c(C)n(-c3cc(C)cc(C)c3)c(C)c12 | inconclusive [inhibitor, single point] |  |
| O=C(C[n+]1ccc2ccccc2c1)c1ccc(O)c(O)c1 |  | inactive: -4.38% |
| CCCCNC(=O)C1(C)CCN1C(=O)c1ccc2ccccc2n1 (stereo not drawn) | inconclusive [inhibitor, single point] |  |
| COc1cc(C=O)ccc1OCC(=O)Nc1cccc(S(=O)(=O)N(C)c2ccccc2)c1 | inconclusive [inhibitor, single point] |  |
| CCC1CCCCN1C(=O)CSc1nc2c(cnn2-c2ccc(C)cc2)c(=O)[nH]1 (stereo not drawn) |  | inactive: 2.54% |
| CCOC(=O)c1ccc(NC(=O)CN2C(=O)c3cccnc3Oc3ccc(Cl)cc32)cc1 | inconclusive [inhibitor, single point] |  |
| COc1ccc(C(C[N+](=O)[O-])n2nc(C)cc2C)cc1 (stereo not drawn) | inconclusive [inhibitor, full curve, poor fit] |  |
| COC(=O)C(NC(=O)c1ccc(F)cc1)(Nc1ncc(S(=O)(=O)c2ccc([N+](=O)[O-])cc2)s1)C(F)(F)F (stereo not drawn) | active: 16.4 µM |  |
| Cc1cc(-c2ccccc2)c2c3c(cn2n1)c(=O)n(C)c(=O)n3C | inconclusive [inhibitor, single point] |  |
| CCOCC(=O)Nc1ccccc1C(=O)N1CCOCC1 |  | inactive: 29.9% |
| Cc1ncc2c(c1CNS(=O)(=O)N(C)C)CCN(C(=O)/C=C/c1ccccc1F)C2 |  | inactive: 12.6% [at 9.04 µM] |
| Cc1ccc(N/C(N)=N/c2nc3c(c(=O)[nH]2)CCCC3)c(C)c1 | active: 13 µM |  |
| Cc1[nH]c2ccc(Br)cc2c(=S)c1C/C=C/Cl | inconclusive [inhibitor, partial curve] |  |
| C=CCN1C(=O)/C(=C2/Sc3ccc(OC)cc3N2C)SC1=Nc1cccc(O)c1 |  | inactive: -29.9% |
| COc1ccc(C2CC(c3ccc(Cl)cc3)=NN2C(C)=O)cc1 (stereo not drawn) | inconclusive [inhibitor, partial curve] |  |
